Reference: the supplement of paper PMC8728848
The other results are listed elsewhere or left out.

Tests used:
Assay in all cases: glycan array binding signal (z-score within array); higher = stronger binding
Conditions in all cases: glycan notation: IUPAC condensed, linker removed; mutation: E227G
[1] = target: Fuc(a1-2)Gal(b1-4)GlcNAc(b1-3)Gal(b1-4)GlcNAc(b1-2)Man(a1-3)[Fuc(a1-2)Gal(b1-4)GlcNAc(b1-3)Gal(b1-4)GlcNAc(b1-2)Man(a1-6)]Man(b1-4)GlcNAc(b1-4)GlcNAc
How it was run: (§1)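 Columns mapping to the same glycan were averaged after glycan names were converted to IUPAC-condensed notation. The data come from 3228 arrays in the Consortium for Functional Glycomics database, limited to those with an available protein sequence. Binding is reported as a within-array Z-score averaged across arrays of one protein sequence and across linkers.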

[2] = target: Fuc(a1-2)Gal(b1-4)GlcNAc(b1-3)Gal(b1-4)GlcNAc(b1-3)Gal(b1-4)GlcNAc
How it was run: as §1

[3] = target: Fuc(a1-2)Gal(b1-4)GlcNAc(b1-3)GalNAc
How it was run: as §1

[4] = target: Fuc(a1-2)Gal(b1-4)GlcNAc(b1-3)[Fuc(a1-2)Gal(b1-4)GlcNAc(b1-6)]GalNAc
How it was run: as §1

[5] = target: Fuc(a1-2)Gal(b1-4)GlcNAc(b1-3)[Fuc(a1-3)[Gal(b1-4)]GlcNAc(b1-6)]Gal(b1-4)Glc
How it was run: as §1

[6] = target: Fuc(a1-2)Gal(b1-4)GlcNAc(b1-6)GalNAc
How it was run: as §1

[7] = target: Fuc(a1-2)Gal(b1-4)GlcNAc6S
How it was run: as §1

[8] = target: Fuc(a1-2)Gal(b1-4)[Fuc(a1-3)]GlcNAc
How it was run: as §1

[9] = target: Fuc(a1-2)Gal(b1-4)[Fuc(a1-3)]GlcNAc(b1-2)Man(a1-3)[Fuc(a1-2)Gal(b1-4)[Fuc(a1-3)]GlcNAc(b1-2)Man(a1-6)]Man(b1-4)GlcNAc(b1-4)[Fuc(a1-6)]GlcNAc
How it was run: as §1

[10] = target: Fuc(a1-2)Gal(b1-4)[Fuc(a1-3)]GlcNAc(b1-2)[Fuc(a1-2)Gal(b1-4)[Fuc(a1-3)]GlcNAc(b1-4)]Man(a1-3)[Fuc(a1-2)Gal(b1-4)[Fuc(a1-3)]GlcNAc(b1-2)Man(a1-6)]Man(b1-4)GlcNAc(b1-4)GlcNAc
How it was run: as §1

[11] = target: Fuc(a1-2)Gal(b1-4)[Fuc(a1-3)]GlcNAc(b1-3)Gal(b1-4)[Fuc(a1-3)]GlcNAc
How it was run: as §1

[12] = target: Fuc(a1-2)Gal(b1-4)[Fuc(a1-3)]GlcNAc(b1-3)Gal(b1-4)[Fuc(a1-3)]GlcNAc(b1-3)Gal(b1-4)[Fuc(a1-3)]GlcNAc
How it was run: as §1

[13] = target: Fuc(a1-2)Gal(b1-4)[Fuc(a1-3)]GlcNAc(b1-3)GalNAc
How it was run: as §1

[14] = target: Fuc(a1-2)Gal(b1-4)[Fuc(a1-3)]GlcNAc(b1-3)[Neu5Ac(a2-6)Gal(b1-4)GlcNAc(b1-6)]Gal(b1-4)Glc
How it was run: as §1

[15] = target: Fuc(a1-2)Gal3S(b1-4)GlcNAc
How it was run: as §1

[16] = target: Fuc(a1-2)Gal6S(b1-3)GlcNAc
How it was run: as §1

[17] = target: Fuc(a1-2)Gal6S(b1-3)GlcNAc6S
How it was run: as §1

[18] = target: Fuc(a1-2)Gal6S(b1-4)Glc
How it was run: as §1

[19] = target: Fuc(a1-2)Gal6S(b1-4)Glc6S
How it was run: as §1

[20] = target: Fuc(a1-2)[Gal(a1-3)]Gal
How it was run: as §1

[21] = target: Fuc(a1-2)[Gal(a1-3)]Gal(b1-3)GalNAc
How it was run: as §1

[22] = target: Fuc(a1-2)[Gal(a1-3)]Gal(b1-3)GalNAc(b1-3)Gal(a1-4)Gal(b1-4)Glc
How it was run: as §1

[23] = target: Fuc(a1-2)[Gal(a1-3)]Gal(b1-3)GlcNAc
How it was run: as §1

[24] = target: Fuc(a1-2)[Gal(a1-3)]Gal(b1-3)GlcNAc(b1-2)Man(a1-3)[Fuc(a1-2)[Gal(a1-3)]Gal(b1-3)GlcNAc(b1-2)Man(a1-6)]Man(b1-4)GlcNAc(b1-4)GlcNAc
How it was run: as §1

[25] = target: Fuc(a1-2)[Gal(a1-3)]Gal(b1-3)GlcNAc(b1-2)Man(a1-3)[Fuc(a1-2)[Gal(a1-3)]Gal(b1-3)GlcNAc(b1-2)Man(a1-6)]Man(b1-4)GlcNAc(b1-4)[Fuc(a1-6)]GlcNAc
How it was run: as §1

[26] = target: Fuc(a1-2)[Gal(a1-3)]Gal(b1-3)GlcNAc(b1-3)GalNAc
How it was run: as §1

[27] = target: Fuc(a1-2)[Gal(a1-3)]Gal(b1-3)GlcNAc(b1-6)GalNAc
How it was run: as §1

[28] = target: Fuc(a1-2)[Gal(a1-3)]Gal(b1-4)Glc
How it was run: as §1

[29] = target: Fuc(a1-2)[Gal(a1-3)]Gal(b1-4)GlcNAc
How it was run: as §1

[30] = target: Fuc(a1-2)[Gal(a1-3)]Gal(b1-4)GlcNAc(b1-2)Man
How it was run: as §1

B1: Epa1-NP-mutant-E227G (Candida glabrata), Q6VBJ0 (protein)
chain: MILNPALFLNKCVCIYTTLILLLLTNGGYATSSNDISLASKDPTTFPLGCSPDITTPKKGLSMELYSYDFRKKGSYPCWDAAYLDPNYPRTGYKSHRLLAKVDGVTGNINFYYHATKGCTPQLGHLPASYNYPKPLTMTNFTMLLYGYFRPKVTGFHTFTISADDLLFVNFGAGNAFDCCRRDSSADHFGNYQAYAIWGSKTAKDELTVHLDAGVYYPIRLFYNNRGYDGALSFTFKTESNENTVSDFSEYFFSLDDTEEGCPGLISYDSSCASVKTSKIIGIDYHTETPNENLVPITKTIYHLGIPCTGTTTTPLCGSGFYDPLANKCVTINTSSTSSVTKTTSHTTSKEVSFHSSISSQKTLIPKSIPSPYGPIKSQSIPTEMETSSEISSSEYAFSDVISTPSHSPYTKKHSSLNSSSYTSTVIHSLTSYSISQGIFSTSLSEQNITSKSSTDKFSTATSMSNNITQSSIIISQFSTNNENYTTTSMHTSSDKISTETLNNSISTTTSILFSNSSTILKNNTTIISSDKDTHYHPVNPTIVCSTNKTEIICASITQPSISNSNNHWSSSVLKFNSTTVRSTLPSSAGSNETSINVPFSSSTESNTSTSSTSTSNSKMVRSTLPSSAGSNETSISVPFSSSTESNTSTSSTSTSNSKMVRSTLPSSAGSNETSINVPFSSSTESNTSTSSTSTSNSKTVRSTPFSSAGIIMTSLSQRNNKSASSYASSNSKCYNTADSCRKVHSTPSYLLTSSYTSEGVDYDCSLVSTKLKINDTNCVNNKHTTKSCLKTSVTTTIPTLEIKTARKSSSNTIGLHSYPTSSPNKSISSAPIIGYISSFKTIKTASPSYQTSDLTTITTITSLNNPGSTAVENTHESNDKSRKTSSNDISSKHSVIKETKDAVESSNKSHQTNTLKCSSIIIASSSHNSYESLGGTTLTLTLSKVYSPQNNDTLPFLEISEVNPSRTVLPESSKMMQYLTSTEERNKTARNTIATNIVSISTFHFEGEGNAIRMGYTQLLLMLIGIIVMNIGT
glycan array binding signal (z-score) [1]: -0.141 | glycan array binding signal (z-score) [2]: -0.178 | glycan array binding signal (z-score) [3]: -0.026 | glycan array binding signal (z-score) [4]: -0.236 | glycan array binding signal (z-score) [5]: -0.2 | glycan array binding signal (z-score) [6]: -0.259 | glycan array binding signal (z-score) [7]: 0.533 | glycan array binding signal (z-score) [8]: -0.207 | glycan array binding signal (z-score) [9]: -0.014 | glycan array binding signal (z-score) [10]: -0.117 | glycan array binding signal (z-score) [11]: -0.253 | glycan array binding signal (z-score) [12]: -0.34 | glycan array binding signal (z-score) [13]: 0.012 | glycan array binding signal (z-score) [14]: -0.129 | glycan array binding signal (z-score) [15]: -0.143 | glycan array binding signal (z-score) [16]: -0.206 | glycan array binding signal (z-score) [17]: -0.141 | glycan array binding signal (z-score) [18]: -0.15 | glycan array binding signal (z-score) [19]: -0.035 | glycan array binding signal (z-score) [20]: -0.147 | glycan array binding signal (z-score) [21]: -0.175 | glycan array binding signal (z-score) [22]: -0.092 | glycan array binding signal (z-score) [23]: -0.168 | glycan array binding signal (z-score) [24]: -0.086 | glycan array binding signal (z-score) [25]: 0.101 | glycan array binding signal (z-score) [26]: -0.164 | glycan array binding signal (z-score) [27]: -0.212 | glycan array binding signal (z-score) [28]: 0.031 | glycan array binding signal (z-score) [29]: -0.081 | glycan array binding signal (z-score) [30]: -0.2
